Among the data in the antibiotic and cytotoxicity screens of Wong et al. (2023) are cytotoxicity call and growth inhibition call values, retold here.

One experiment concerns HSkMC. Nature of the experiment: cytotoxicity call (relative viability < 0.9). The settings on record: 10 µM.
In the next experiment the test system is HepG2. Nature of the experiment: cytotoxicity call (relative viability < 0.9). The note with it: 10 µM.
The test system of the next experiment is S. aureus RN4220. Nature of the experiment: growth inhibition call (relative growth <= 0.2). The settings on record: 50 µM.

Structures are written as SMILES. Some of the results follow.

`C[C@H]1CCCCO[C@H](CN(C)C(=O)Nc2ccc(C(F)(F)F)cc2)[C@@H](C)CN([C@@H](C)CO)C(=O)c2cc(NC(=O)Nc3ccc(F)cc3)ccc2O1`: the cytotoxicity call in the experiment on HSkMC and with HepG2 was “inactive” each time. In the experiment on S. aureus RN4220, the growth inhibition call was “inactive”.

On to `COc1ccc(S(=O)(=O)N(C)C[C@@H]2Oc3ncc(C#Cc4cccc(F)c4)cc3C(=O)N([C@H](C)CO)C[C@@H]2C)cc1`, for which the cytotoxicity call in the experiment on HSkMC and in the experiment with HepG2 was “inactive” in each case. Moreover, the growth inhibition call in the experiment with S. aureus RN4220 was “inactive”.

Regarding `Cc1noc(C)c1S(=O)(=O)N(C)C[C@H]1Oc2ccc(NC(=O)Cc3cn(C)c4ccccc34)cc2CC(=O)N([C@H](C)CO)C[C@H]1C`, the cytotoxicity call with HSkMC and in the experiment with HepG2 was “inactive” each time. The growth inhibition call with S. aureus RN4220 was “inactive”.

In the case of `C[C@H](CO)N1C[C@H](C)[C@@H](CN(C)CC2CC2)Oc2ccc(NS(=O)(=O)c3ccc(F)cc3)cc2CC1=O`, the cytotoxicity call in the experiment with HSkMC and in the experiment on HepG2 was “inactive” in each case. Also, the growth inhibition call in the experiment on S. aureus RN4220 is “inactive”.

For `C[C@H](CO)N1C[C@H](C)[C@H](CN(C)Cc2ccccc2)OCCCC[C@H](C)Oc2ccc(NS(=O)(=O)c3ccccc3)cc2C1=O`, the cytotoxicity call with HSkMC and in the experiment with HepG2 was “inactive” each time. Moreover, the growth inhibition call in the experiment on S. aureus RN4220 was “inactive”.

For the molecule `COc1ccc2c3c([nH]c2c1)[C@@H](CO)N(Cc1ccc(cc1)Cl)C[C@]13CN(CCc2ccccc2)C1`, the cytotoxicity call with HSkMC and in the experiment on HepG2 was “active” in each case. For the same molecule, the growth inhibition call in the experiment with S. aureus RN4220 was “active”.

In the case of `COc1cc(C)nc(SCC(N)=O)n1`, the cytotoxicity call with HSkMC and with HepG2 was “inactive” each time. Moreover, in the experiment on S. aureus RN4220, the growth inhibition call was “inactive”.

In the case of `CCOC(=O)CNc1nnc(N)[nH]1`, the cytotoxicity call with HSkMC and in the experiment on HepG2 was “inactive” throughout. Further, in the experiment on S. aureus RN4220, the growth inhibition call is “inactive”.

`C[C@H]1CN([C@@H](C)CO)S(=O)(=O)c2ccc(-c3cncnc3)cc2O[C@H]1CN(C)C(=O)c1ccc2c(c1)OCO2`: the cytotoxicity call in the experiment on HSkMC and in the experiment with HepG2 was “inactive” each time. Further, the growth inhibition call with S. aureus RN4220 was “inactive”.

For the molecule `CN1CCN(C(=O)C[C@H]2CC[C@H]3[C@@H](COc4ccc(NC(=O)C5CCOCC5)cc4C(=O)N3C)O2)CC1`, the cytotoxicity call with HSkMC and with HepG2 was “inactive” in each case. Also, in the experiment on S. aureus RN4220, the growth inhibition call is “inactive”.

Turning to `C[C@@H]1CCCCO[C@@H](CN(C)C(=O)CCC(F)(F)F)[C@@H](C)CN([C@@H](C)CO)C(=O)c2cc(NC(=O)C3CCCCC3)ccc2O1`, the cytotoxicity call with HSkMC and with HepG2 was “inactive” throughout. In addition, the growth inhibition call with S. aureus RN4220 was “inactive”.

Take `Cc1noc(C)c1S(=O)(=O)N(C)C[C@@H]1Oc2ccc(NC(=O)NC(C)C)cc2CC(=O)N([C@H](C)CO)C[C@H]1C`: the cytotoxicity call in the experiment on HSkMC and in the experiment on HepG2 was “inactive” in each case. Also, the growth inhibition call in the experiment with S. aureus RN4220 is “inactive”.

`COc1ccc(CN(C)C[C@@H]2OCCCC[C@@H](C)Oc3ccc(NS(=O)(=O)c4ccc(Cl)cc4)cc3C(=O)N([C@@H](C)CO)C[C@H]2C)cc1`: the cytotoxicity call in the experiment on HSkMC and with HepG2 was “inactive” each time. Moreover, in the experiment on S. aureus RN4220, the growth inhibition call is “inactive”.

For the molecule `C[C@H](CO)N1C[C@H](C)[C@@H](CN(C)C(=O)Nc2ccc(F)cc2)Oc2ccc(NS(C)(=O)=O)cc2C1=O`, the cytotoxicity call in the experiment with HSkMC and with HepG2 was “inactive” in each case. Further, in the experiment on S. aureus RN4220, the growth inhibition call is “inactive”.

On to `C[C@H]1CN([C@@H](C)CO)S(=O)(=O)c2ccc(C#Cc3ccncc3)cc2O[C@@H]1CN(C)C(=O)Nc1ccc2c(c1)OCO2`, for which the cytotoxicity call in the experiment on HSkMC was “inactive”. Also, in the experiment with HepG2, the cytotoxicity call is “active”. The growth inhibition call in the experiment with S. aureus RN4220 is “inactive”.

On to `C[C@H](CO)N1C[C@H](C)[C@H](CN(C)C(=O)Nc2ccc3c(c2)OCO3)Oc2ccc(NC(=O)Nc3ccc(C(F)(F)F)cc3)cc2CC1=O`, for which the cytotoxicity call in the experiment with HSkMC and in the experiment with HepG2 was “inactive” each time. Moreover, the growth inhibition call in the experiment with S. aureus RN4220 is “inactive”.

For `COc1ccc(NC(=O)N(C)C[C@H]2OCCCC[C@H](C)Oc3ccc(NC(=O)C4CCCCC4)cc3C(=O)N([C@H](C)CO)C[C@H]2C)cc1`, the cytotoxicity call in the experiment on HSkMC and with HepG2 was “inactive” in each case. Moreover, the growth inhibition call in the experiment on S. aureus RN4220 is “inactive”.

For the molecule `CS(=O)(=O)N1CCOC[C@]2(CN(c3ncccn3)CCO2)C1`, the cytotoxicity call with HSkMC and with HepG2 was “inactive” in each case. Also, the growth inhibition call in the experiment on S. aureus RN4220 is “inactive”.

Turning to `NCCc1[nH]cnc1-c1cccs1`, the cytotoxicity call with HSkMC and in the experiment on HepG2 was “inactive” in each case. Moreover, the growth inhibition call with S. aureus RN4220 was “inactive”.

With `C[C@@H]1CCCCO[C@@H](CN(C)S(C)(=O)=O)[C@@H](C)CN([C@@H](C)CO)C(=O)c2cc(NS(C)(=O)=O)ccc2O1`, the cytotoxicity call in the experiment on HSkMC and with HepG2 was “inactive” throughout. Also, the growth inhibition call in the experiment with S. aureus RN4220 is “inactive”.

Consider `C[C@@H]1CN([C@@H](C)CO)C(=O)Cc2cc(NC(=O)Nc3cccc4ccccc34)ccc2O[C@@H]1CN(C)CC1CCCCC1`, for which the cytotoxicity call in the experiment on HSkMC is “inactive”. Further, in the experiment with HepG2, the cytotoxicity call was “active”. In the experiment with S. aureus RN4220, the growth inhibition call was “inactive”.

Consider `CN1CCN(C(=O)C[C@@H]2CC[C@H]3[C@@H](COc4ccc(NC(=O)c5ccc(F)c(F)c5)cc4C(=O)N3C)O2)CC1`, for which the cytotoxicity call with HSkMC and in the experiment with HepG2 was “inactive” in each case. Moreover, the growth inhibition call in the experiment with S. aureus RN4220 was “inactive”.

Regarding `CCCCc1cn(C[C@@H]2CCCN2C(=O)N[C@H](CO)CCc2oc(C(C)=O)c(C(=O)OC)c2C(=O)OC)nn1`, the cytotoxicity call in the experiment with HSkMC and with HepG2 was “inactive” throughout. For the same molecule, the growth inhibition call with S. aureus RN4220 is “inactive”.

In the case of `C[C@@H]1CN([C@H](C)CO)C(=O)CCCn2nncc2CO[C@H]1CN(C)Cc1ccc2c(c1)OCCN2C`, the cytotoxicity call in the experiment with HSkMC and with HepG2 was “inactive” in each case. In addition, in the experiment with S. aureus RN4220, the growth inhibition call is “inactive”.

On to `Cc1noc(C)c1NC(=O)N(C)C[C@H]1Oc2ccc(NC(=O)Cn3cnnn3)cc2C(=O)N([C@H](C)CO)C[C@H]1C`, for which the cytotoxicity call with HSkMC and with HepG2 was “inactive” throughout. For the same molecule, in the experiment with S. aureus RN4220, the growth inhibition call was “inactive”.

Regarding `C[C@@H]1CN([C@H](C)CO)C(=O)c2cc(NC(=O)NC3CCCCC3)ccc2O[C@H]1CN(C)C(=O)Nc1cccc2ccccc12`, the cytotoxicity call in the experiment on HSkMC (human skeletal muscle cells) and in the experiment with HepG2 was “inactive” in each case. In addition, the growth inhibition call with S. aureus RN4220 was “inactive”.

Consider `O=S1(=O)CC[C@H](S(=O)(=O)N2CCOCC2)C1`, for which the cytotoxicity call with HSkMC and in the experiment with HepG2 was “inactive” in each case. Further, in the experiment on S. aureus RN4220, the growth inhibition call was “inactive”.

In the case of `COc1ccc2c(c1OC)C(=O)OC2C1c2c(cc3c(c2OC)OCO3)CCN1C.Cl` (centres undefined), in the experiment with HSkMC, the cytotoxicity call was “inactive”. For the same molecule, the cytotoxicity call with HepG2 is “active”. The growth inhibition call in the experiment with S. aureus RN4220 was “inactive”.
